Experimental data published in PubChem BioAssay AID493208 (National Center for Advancing Translational Sciences (NCATS), 2011).
Hit rate of the full screen: of about 44,000 compounds, about 340 (0.77%) were called active. Another 5% or so got no clear call; they are omitted. Calls follow the shape of the dose curve; as a rule, active = well fitted inhibition curve with a large enough effect; inconclusive = small, poorly fitted or top-dose-only effect; inactive = flat fitted curve, though single readings scatter. Some of the results follow.

Test: Acumen qHTS Assay for Inhibitors of the mTORC1 Signaling Pathway in MEF (Tsc2-/-, p53-/-) Cells: Sytravon; also: nearly all actives have a fitted effect of over 50% in size
Conditions: phospho-rpS6 immunofluorescence/PI, 24 h; series mostly up to 38.3 µM; activity change, negative = inhibition: at the top concentration
Outline: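 Read-out: phospho-S6 Alexa-488 intensity over PI intensity per well, scored as % active cells using thresholds from rapamycin (7.5 nM) and DMSO controls. Tsc2-/-, p53-/- MEFs exposed to compound for 24 h; PI cell count recorded as viability.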
Potency is read from the fitted curve at half-maximal effect.

Activity change, negative = inhibition, inactive:
Cc1cccc(NC(=O)Cn2c(=O)n(CCC(=O)N3CCc4ccccc4C3)c(=O)c3ccccc32)c1 1.93%
CCOC(=O)c1cc(-c2ccc(F)cc2)n(CCC(=O)NC2CCCCC2)c1C 0.962%
Cc1cc(C)cc(Nc2nc3c(S(=O)(=O)c4cccc(Cl)c4)nnn3c3ccsc23)c1 -6.5%
CC(=O)Nc1ccc(C(=O)CSc2nnc3ccc4ccccc4n23)cc1 -1.48%
CCOC(=O)c1cc2c(=O)n3ccccc3nc2n(C)c1=NC(=O)c1cc2ccccc2o1 0.0798%
O=S(=O)(NCc1ccc(Cl)cc1)c1ccc(N2CCCCS2(=O)=O)cc1 -18.9%
CCOc1ccc(NC(=O)NCCN2CCN(c3ccccc3F)CC2)cc1 -7.49%
COc1cccc(NC(=O)c2ccc(-c3nc(COc4ccc(C)cc4)c(C)o3)cc2)c1 -4.62%
Cc1ccc2c(c1)c1c(c(=O)n(-c3ccccc3C)c(=O)n1CC(=O)NCC1CCCO1)n2C (stereo not given) 2.54%
Cc1ccc(C)c(NC(=O)CCCN2C(=O)C(c3ccccc3)Oc3cccnc32)c1 (stereo not given) -3.61%
O=C(CNC(=O)c1ccc(Cl)cc1)OCc1cc(=O)n2nc(C3CCCCC3)sc2n1 -3.86%
Nc1c(C(=O)Nc2ccc(Br)cc2)sc2nc(-c3ccncc3)ccc12 2.18%
COc1ccc(S(=O)(=O)N(CC(=O)Nc2cccnc2)c2ccc(C)cc2)cc1OC 10.1%
COc1cc2c(=O)n(CCC(=O)NCC3CCCO3)c(=O)n(CC(=O)Nc3ccc(F)cc3)c2cc1OC (stereo not given) -12.2%
Cc1ccc(O)c(NC(=O)CCS(=O)(=O)c2nc(-c3ccc4c(c3)OCO4)cc(C(F)(F)F)n2)c1 -21.7%
Cc1ccc(-n2nnc(-c3nsc(NC(=O)c4ccc(C)c(C)c4)n3)c2C)cc1 2.32%
CCc1ccc(CNC(=O)CCn2c(=O)c3cccn3c3ccc(F)cc32)cc1 0%
CCOc1ccccc1CNC(=O)c1cc(-c2ccc(C)c(C)c2)nc2ccccc12 9.26%
CCn1c(CN2CCCCC2)nc2cc(NC(=O)c3ccc([N+](=O)[O-])cc3)ccc21 -15.3%
CCOc1ccccc1NC(=O)COc1ccc(S(=O)(=O)NC2CCCCC2)cc1 -15.9%
COc1cccc2sc(N3CCN(C(=O)CCS(=O)(=O)c4ccc(F)cc4)CC3)nc12 -1.85%
CCCS(=O)(=O)N1CCC(n2c(C(F)(F)F)nc3cccnc32)CC1 7.04%
Cc1ccsc1CN(C(=O)c1oc2ccccc2c1C)C1CCS(=O)(=O)C1 (stereo not given) -1.05%
Cc1ccc(CNC(=O)C(=O)NCC(c2cccnc2)N2CCN(c3ccccc3F)CC2)cc1 (stereo not given) -0.369%
CCn1c(=O)c2sccc2n2c(CCC(=O)Nc3ccc(OC)c(Cl)c3)nnc12 22.1%
Cc1ccc(C(=O)Nc2nc(-c3ccccc3)ns2)cc1 -0.401%
Cc1ccc(NC(=O)Cn2nnc(C(=O)NCCc3ccccc3)c2N)cc1C -4.45%
Cc1oc2ncn(C)c(=O)c2c1C(=O)NCCCN(Cc1ccccc1)C(C)C 1.14%
CC(C)Oc1ccc(CNC(=O)C2CCN(c3nc4ccccc4n(C)c3=O)CC2)cc1 -3.91%
CCc1ccc(C2NC(=O)c3[nH]nc(-c4cccc(OC)c4)c32)cc1 (stereo not given) -11.9%
CS(=O)(=O)N1CCc2cc(C(=O)Nc3cccc(F)c3)ccc21 -10.6%
COc1ccccc1CC(=O)Nc1ccc2nc(N3CCC(C)CC3)cc(C)c2c1 1.36%
Cc1ccc(C)c(Cn2c3ccccc3c3cnn(CC(=O)NC(C)c4ccccc4)c(=O)c32)c1 (stereo not given) -4.32%
CCOC(=O)c1ccc(-c2ccc(/C=C(\C#N)C(=O)Nc3ccc(C)cc3OC)o2)cc1 -1.63%
CCCNC(=O)CN1CCN(c2ncc(NC(=O)c3ccc(Cl)cc3)cc2C(=O)O)CC1 0.554%
CCCOc1ccccc1C1Oc2nc(SC)nnc2-c2ccccc2N1C(C)=O (stereo not given) -4.38%
COCCNC(=O)Cn1ncc2c(C)n(Cc3ccc(C)cc3)c(C)c2c1=O 3.16%
CCOc1ccc(C(=O)c2cn(Cc3ccc(F)cc3)c3ccc(F)cc3c2=O)cc1 -6.69%
Cc1ccc(C)c(CNC(=O)c2cnc3sc(N4CCCC4)nn3c2=O)c1 1.22%
Cc1ccc(CN(Cc2ccco2)C(=O)c2oc3ccc(C)cc3c2C)cc1 -7.47%
Cc1cccc(-n2ncc3c(N4CCCCCC4)ncnc32)c1 1.17%
CC(C)(C)C(=O)OC1=CN(Cc2ccccc2)S(=O)(=O)c2ccccc21 -23.7%
CSc1ccc(C2c3c(oc4ccccc4c3=O)C(=O)N2CCCN2CCOCC2)cc1 (stereo not given) -1.9%
CCc1ccc(NC(=O)CSc2nc3ncccc3[nH]2)cc1 -9.15%
COc1cccc(NC(=O)c2c(C(=O)Nc3ccccc3)sc3nc(C)cc(=O)n23)c1 0.214%
CCOc1ccc(/C=C/C(=O)Nc2sc3c(c2C(=O)OC)CCC3)cc1 4.43%
CCC(Cc1ccccc1)NC(=O)c1csc2c1CCCCC2 (stereo not given) -10.4%
COc1cccc(Cn2c(SCc3ccc(C(=O)N4CCC(C)CC4)cc3)nc3ccncc32)c1 0.526%
COc1ccc2c(C)cc(SCC(=O)Nc3nsc(-c4ccc(C(C)(C)C)cc4)n3)nc2c1 1.41%
CC(C)(C)OC(=O)N1CCC(c2c(C(=O)NCCN3CCOCC3)cnn2-c2ccccc2)CC1 -9.55%
COc1ccc2oc(-c3ccc(C)c(NC(=O)c4ccc(N5CCCCC5)c([N+](=O)[O-])c4)c3)nc2c1 -4.55%
COc1ccc(CNC(=O)CN2CCSc3ccccc32)c(OC)c1 -4.37%
CCN(CC)C(=O)Cn1c(SCC(=O)Nc2ccc(C)c(C)c2)nc2ccccc21 0%
CCOC(=O)c1c(Nc2ccccc2)nnc(-c2ccccc2)c1-c1ccccc1 -17.6%
O=C(Cn1c(=O)oc2ccccc21)NCc1ccc(Cl)cc1 -8.74%
Cc1ccc(-n2ncc3c(NCCc4ccccc4)ncnc32)cc1 13.7%
CCOc1ccc(S(=O)(=O)n2nc(C)c(S(=O)(=O)N3CCCCCC3)c2C)cc1 7.59%
Cc1cc2oc(C(=O)N(Cc3ccccc3)C3CCS(=O)(=O)C3)cc(=O)c2cc1C (stereo not given) -5.91%
CN1CCN(c2ncc3c(n2)CCN(Cc2ccccc2Cl)C3)CC1 25%
CCc1ccc(-n2c(=O)c3cccnc3n2CC(=O)N(CC)c2cccc(C)c2)cc1 -26.2%
COc1cccc(C(=O)Nc2ccc3c(c2)CCCN3C(=O)c2cccs2)c1OC 0%
Cc1ccc(NC(=O)CN2C(=O)C(c3ccccc3)=NC2(C)C)cc1C -6.18%
Cc1cc(-c2nc3ncccc3o2)ccc1NC(=O)COc1ccc(C(C)(C)C)cc1 -4.48%
CCc1ccc(NC(=O)CSc2nnc(-c3nonc3NC(C)=O)n2-c2ccccc2)cc1 3.41%
Cc1c2cnn(-c3ccccc3)c(=O)c2c(C)n1CC(=O)NCc1ccc(Cl)cc1 -4.35%
CCOc1ccc(Nc2c(S(=O)(=O)c3ccc(C)cc3)cnc3ccccc23)cc1 -13.9%
CC1=C(C(N)=O)C(c2ccc(C(C)C)cc2)n2nc(SCc3ccccc3F)nc2N1 (stereo not given) 7.92%
CCn1cc2nc(SCc3cccc(C(F)(F)F)c3)n(CCc3ccccc3)c(=O)c2n1 0%
CCOc1ccc(NC(=O)Cn2cnc3nc4c(cc3c2=O)CCCC4)cc1 1.63%
COc1ccc(CCNC(=O)Cn2c(C)c3cnn(-c4ccccc4)c(=O)c3c2C)cc1OC -2.07%
COc1ccc(-c2cc(C)no2)cc1S(=O)(=O)Nc1cccc(C(F)(F)F)c1 5.35%
Cc1c(CCNC(=O)c2ccc(C(F)(F)F)cc2)sc2nc(-c3ccc(F)cc3)nn12 0.738%
COc1ccc(-c2[nH]c(-c3ccc(F)cc3)nc2SCC(=O)Nc2ccc(OC)c(OC)c2)cc1 3.53%
Fc1ccc(-n2ncc3c(Nc4ccc(Oc5ccc(Cl)cc5)cc4)ncnc32)cc1 9.36%
Cc1ccc(N2CC(c3nnc(Cc4ccc(F)cc4Cl)o3)CC2=O)cc1 (stereo not given) -15.3%
CCCCNC(=O)c1ccc(-c2nc(CS(=O)(=O)c3ccc(C)cc3)c(C)o2)cc1 -6.45%
CC1=C(c2ccc(Cl)cc2)S(=O)(=O)N=C1N1CCN(c2cccc(C)c2)C(C)C1 (stereo not given) 0.496%
COC(=O)CNC(c1ccccc1)c1cc(Br)ccc1NC(=O)c1cc(OC)c(OC)c(OC)c1 (stereo not given) 0.572%
Cc1ccc(-c2csc(=Nc3ccccc3)n2CCCO)cc1 -2.04%
CCOC(=O)c1ccc(NC(=O)Cn2nnc(-c3ccc(C(F)(F)F)cc3)n2)cc1 9.63%
CNC(=O)c1ccc(NC(=O)c2nsc3ccccc23)cc1 1.53%
CCOC(=O)c1ccc(OCC2c3cc(OC)c(OC)cc3CCN2C(=O)Cc2ccc(OC)c(OC)c2)cc1 (stereo not given) 13.2%
COc1ccc2c(c1)c(N1CCCC1=O)c(C(=O)Nc1ccc(Cl)cc1C)n2C -1.43%
CCN1Cc2cccc(C(=O)Nc3ccc(F)cc3)c2C1=O -4.71%
COC(=O)c1ccc(OC)c(Cn2c(=O)n(-c3cccc(Cl)c3)c(=O)c3c2c2cc(C)ccc2n3C)c1 -22.1%
CCOC(=O)c1c(-c2ccc(C)cc2)csc1NC(=O)c1ccc(C(C)(C)C)cc1 -7.41%
CCc1ccc(NC(=O)CCS(=O)(=O)c2ccc3c(c2)oc(=O)n3C)cc1 6.13%
Cc1ccc(C)c(CN2C(=O)c3ccccc3Sc3ccc(C(=O)NC4CCCC4)cc32)c1 0%
Cc1ccc(-n2ncc(C(=O)N3CCc4ccccc4C3)c2C2CCN(C(=O)OC(C)(C)C)CC2)cc1C -13.4%
Cc1ccc(N2CCN(C(=O)CCc3c(C)nc4ncnn4c3C)CC2)c(C)c1 -12.8%
Cc1cc(C)c(C#N)c(SCC(=O)Nc2ccccc2C#N)n1 2.65%
COc1ccccc1-c1noc(-c2ccc(NCCc3ccccc3)c([N+](=O)[O-])c2)n1 -0.582%
COc1cccc(CNC(=O)CSc2ncc(S(=O)(=O)c3ccc(C)c(Cl)c3)c(=O)[nH]2)c1 -2.69%
CCn1cc(C(=O)NCCc2ccc(OC)c(OC)c2)c(=O)c2cc(S(=O)(=O)N3CCc4ccccc4C3)ccc21 0.381%

Potency, active:
CCN(c1ccccc1)S(=O)(=O)c1cc(C(=O)Nc2ccc(Br)cc2)ccc1F 14.7 µM
